Data taken from patent US9439918B2 (priority 2008, dated 2016).
≈ marks a conversion by molar mass, not a printed value.

How the values were obtained:
Format in all cases: cell-based
Conditions in all cases: broth microdilution
[1] = test system: S. pneumoniae 303 Ery-R (ermB)
[2] = test system: H. influenzae 49247 Ery-S
[3] = test system: S. aureus 96:11480 Ery-R (MLSb)
S. aureus 29213 Ery-S = test system: S. aureus 29213 Ery-S
[4] = test system: S. pneumoniae 163 Ery-R (MefA)

Compound	Minimum inhibitory concentration, S. pneumoniae 303 Ery-R (ermB) [1] [µg/mL]	Minimum inhibitory concentration, H. influenzae 49247 Ery-S [2] [µg/mL]	Minimum inhibitory concentration, S. aureus 96:11480 Ery-R (MLSb) [3] [µg/mL]	Minimum inhibitory concentration, S. aureus 29213 Ery-S (S. aureus 29213 Ery-S) [µg/mL]	Minimum inhibitory concentration, S. pneumoniae 163 Ery-R (MefA) [4] [µg/mL]
CCC1OC(=O)C(C)C(=O)C(C)C(OC2OC(C)CC(N(C)C)C2O)C(C)(OC)CC(C)C(=O)C(C)C2N(CCCn3cc(-c4ccc(C(F)(F)F)cc4)nn3)C(=O)OC12C (centres unmarked) [Entry 13a]	16 (≈ 18.5 µM)	> 64	2 (≈ 2.31 µM)	1 (≈ 1.15 µM)	
CCC1OC(=O)C(C)C(=O)C(C)C(OC2OC(C)CC(N(C)C)C2O)C(C)(OC)CC(C)C(=O)C(C)C2N(CCCn3cc(-c4cccc(N)c4)nn3)C(=O)OC12C (centres unmarked) [Entry 16a]	> 64	16 (≈ 19.7 µM)		0.5 (≈ 0.615 µM)	
CCC1OC(=O)C(C)C(=O)C(C)C(OC2OC(C)CC(N(C)C)C2O)C(C)(OC)CC(C)C(=O)C(C)C2N(CCCCn3cc(-c4ccc(C(F)(F)F)cc4)nn3)C(=O)OC12C (centres unmarked) [Entry 13b]	8 (≈ 9.09 µM)	8 (≈ 9.09 µM)	0.25 (≈ 0.284 µM)	0.25 (≈ 0.284 µM)	
CCC1OC(=O)C(C)C(=O)C(C)C(OC2OC(C)CC(N(C)C)C2O)C(C)(OC)CC(C)C(=O)C(C)C2N(CCCCCn3cc(COc4c(Cl)cccc4Cl)nn3)C(=O)OC12C (centres unmarked) [Entry 17c]	2 (≈ 2.16 µM)	32 (≈ 34.6 µM)	0.5 (≈ 0.541 µM)	0.25 (≈ 0.27 µM)	
CCC1OC(=O)C(C)C(=O)C(C)C(OC2OC(C)CC(N(C)C)C2O)C(C)(OC)CC(C)C(=O)C(C)C2N(CCCn3cc(-c4cccnc4)nn3)C(=O)OC12C (centres unmarked) [Entry 15a]	> 64	> 64	2 (≈ 2.5 µM)	2 (≈ 2.5 µM)	1 (≈ 1.25 µM)
CCC1OC(=O)C(C)C(=O)C(C)C(OC2OC(C)CC(N(C)C)C2O)C(C)(OC)CC(C)C(=O)C(C)C2N(CCCCCn3cc(-c4ccccc4)nn3)C(=O)OC12C (centres unmarked) [Entry 11c]	0.25 (≈ 0.303 µM)	16 (≈ 19.4 µM)			
CCC1OC(=O)C(C)C(=O)C(C)C(OC2OC(C)CC(N(C)C)C2O)C(C)(OC)CC(C)C(=O)C(C)C2N(CCCn3cc(COc4c(Cl)cccc4Cl)nn3)C(=O)OC12C (centres unmarked) [Entry 17a]	> 64	> 64	1 (≈ 1.11 µM)	1 (≈ 1.11 µM)	
CCC1OC(=O)C(C)C(=O)C(C)C(OC2OC(C)CC(N(C)C)C2O)C(C)(OC)CC(C)C(=O)C(C)C2N(CCCCCn3cc(Cn4nnc5ccccc54)nn3)C(=O)OC12C (centres unmarked) [Entry 18c]		8 (≈ 9.08 µM)		≤ 0.125	
CCC1OC(=O)C(C)C(=O)C(C)C(OC2OC(C)CC(N(C)C)C2O)C(C)(OC)CC(C)C(=O)C(C)C2N(CCCCCn3cc(-c4cccc(N)c4)nn3)C(=O)OC12C (centres unmarked) [Entry 16c]	0.25 (≈ 0.297 µM)	8 (≈ 9.51 µM)		≤ 0.125	
CCC1OC(=O)C(C)C(=O)C(C)C(OC2OC(C)CC(N(C)C)C2O)C(C)(OC)CC(C)C(=O)C(C)C2N(CCCCn3cc(-c4ccccc4)nn3)C(=O)OC12C (centres unmarked) [Entry 11b]	2 (≈ 2.46 µM)	8 (≈ 9.85 µM)	0.25 (≈ 0.308 µM)		
CCC1OC(=O)C(C)C(=O)C(C)C(OC2OC(C)CC(N(C)C)C2O)C(C)(OC)CC(C)C(=O)C(C)C2N(CCCCn3cc(-c4cccc(N)c4)nn3)C(=O)OC12C (centres unmarked) [Entry 16b]		2 (≈ 2.42 µM)		0.125 (≈ 0.151 µM)	
CCC1OC(=O)C(C)C(=O)C(C)C(OC2OC(C)CC(N(C)C)C2O)C(C)(OC)CC(C)C(=O)C(C)C2N(CCCCn3cc(COc4c(Cl)cccc4Cl)nn3)C(=O)OC12C (centres unmarked) [Entry 17b]	1 (≈ 1.1 µM)	16 (≈ 17.6 µM)		≤ 0.125	
CCC1OC(=O)C(C)C(=O)C(C)C(OC2OC(C)CC(N(C)C)C2O)C(C)(OC)CC(C)C(=O)C(C)C2N(CCCCCn3cc(-c4ccc(Br)cc4)nn3)C(=O)OC12C (centres unmarked) [Entry 12c]	1 (≈ 1.11 µM)	16 (≈ 17.7 µM)			
CCC1OC(=O)C(C)C(=O)C(C)C(OC2OC(C)CC(N(C)C)C2O)C(C)(OC)CC(C)C(=O)C(C)C2N(CCCn3cc(-c4ccccc4)nn3)C(=O)OC12C (centres unmarked) [Entry 11a]		> 64	1 (≈ 1.25 µM)	1 (≈ 1.25 µM)	
CCC1OC(=O)C(C)C(=O)C(C)C(OC2OC(C)CC(N(C)C)C2O)C(C)(OC)CC(C)C(=O)C(C)C2N(CCCCCn3cc(-c4cccnc4)nn3)C(=O)OC12C (centres unmarked) [Entry 15c]	4 (≈ 4.84 µM)	16 (≈ 19.3 µM)	0.25 (≈ 0.302 µM)		0.25 (≈ 0.302 µM)
CCC1OC(=O)C(C)C(=O)C(C)C(OC2OC(C)CC(N(C)C)C2O)C(C)(OC)CC(C)C(=O)C(C)C2N(CCCCn3cc(-c4ccc(Br)cc4)nn3)C(=O)OC12C (centres unmarked) [Entry 12b]	8 (≈ 8.98 µM)	8 (≈ 8.98 µM)			
CCC1OC(=O)C(C)C(=O)C(C)C(OC2OC(C)CC(N(C)C)C2O)C(C)(OC)CC(C)C(=O)C(C)C2N(CCCCn3cc(-c4ccccn4)nn3)C(=O)OC12C (centres unmarked) [Entry 14b]		4 (≈ 4.92 µM)			
CCC1OC(=O)C(C)C(=O)C(C)C(OC2OC(C)CC(N(C)C)C2O)C(C)(OC)CC(C)C(=O)C(C)C2N(CCCCn3cc(-c4cccnc4)nn3)C(=O)OC12C (centres unmarked) [Entry 15b]	64 (≈ 78.7 µM)	64 (≈ 78.7 µM)	4 (≈ 4.92 µM)		2 (≈ 2.46 µM)
CCC1OC(=O)C(C)C(=O)C(C)C(OC2OC(C)CC(N(C)C)C2O)C(C)(OC)CC(C)C(=O)C(C)C2N(CCCn3cc(Cn4nnc5ccccc54)nn3)C(=O)OC12C (centres unmarked) [Entry 18a]		> 64	2 (≈ 2.34 µM)	1 (≈ 1.17 µM)	0.5 (≈ 0.586 µM)
CCC1OC(=O)C(C)C(=O)C(C)C(OC2OC(C)CC(N(C)C)C2O)C(C)(OC)CC(C)C(=O)C(C)C2N(CCCCCn3cc(-c4ccccn4)nn3)C(=O)OC12C (centres unmarked) [Entry 14c]	0.25 (≈ 0.302 µM)	64 (≈ 77.4 µM)			
CCC1OC(=O)C(C)C(=O)C(C)C(OC2OC(C)CC(N(C)C)C2O)C(C)(OC)CC(C)C(=O)C(C)C2N(CCCn3cc(-c4ccc(Br)cc4)nn3)C(=O)OC12C (centres unmarked) [Entry 12a]	8 (≈ 9.12 µM)	64 (≈ 73 µM)	0.5 (≈ 0.57 µM)	0.25 (≈ 0.285 µM)	
